# The whole screen tested about 60,000 compounds, of which about 65 (0.1%) were called active. Inconclusive results, whose numbers are uncertain, are shown with a selection of clear calls. The call rests on the fitted dose curve; in most records, active means well fitted inhibition curve with a large enough effect; inconclusive means small, poorly fitted or top-dose-only effect; inactive means no such curve, though single readings can be large or run the other way. Potencies beside an inconclusive call are fits to weak or partial responses and may not hold up.
# Molecular target: Ubiquitin carboxyl-terminal hydrolase 2 (Homo sapiens) (UniProt O75604)
# Sequence of UniProt O75604 (O75604 whole entry, looked up): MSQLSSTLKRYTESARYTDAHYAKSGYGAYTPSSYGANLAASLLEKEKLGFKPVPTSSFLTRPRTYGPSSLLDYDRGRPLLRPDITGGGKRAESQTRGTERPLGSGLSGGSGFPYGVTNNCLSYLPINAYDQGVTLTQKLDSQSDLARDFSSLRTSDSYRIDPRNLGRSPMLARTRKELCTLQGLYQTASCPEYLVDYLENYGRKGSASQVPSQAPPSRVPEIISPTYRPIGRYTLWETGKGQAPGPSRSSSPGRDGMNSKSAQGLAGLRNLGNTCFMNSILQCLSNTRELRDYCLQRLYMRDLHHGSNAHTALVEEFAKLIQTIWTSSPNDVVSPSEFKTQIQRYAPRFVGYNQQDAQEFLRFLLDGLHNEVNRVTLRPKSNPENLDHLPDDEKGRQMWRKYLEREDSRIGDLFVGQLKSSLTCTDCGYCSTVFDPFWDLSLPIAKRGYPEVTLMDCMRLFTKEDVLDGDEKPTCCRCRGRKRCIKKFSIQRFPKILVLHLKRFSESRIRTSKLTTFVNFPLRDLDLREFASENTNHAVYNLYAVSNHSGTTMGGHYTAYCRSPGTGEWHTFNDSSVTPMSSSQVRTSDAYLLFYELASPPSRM
# Assay: qHTS Assay for Inhibitors of Ubiquitin-specific Protease USP2a; further: nearly all actives have a fitted effect of over 60% in size;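 on activity change, negative = inhibition: plate controls were DMSO for no effect and NEM full inhibition control for full effect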
# Settings: USP2a enzymatic assay; Potency: qHTS inhibition; activity change, negative = inhibition: at 38.3 µM (top of the series)
# How it was run: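 USP2 core (20 nM final) was preincubated with compound for 30 min at RT in 20 mM Tris-HCl pH 8.0, 2 mM CaCl2, 2 mM beta-mercaptoethanol; Ub-PLA2 (20 nM) plus NBD C6-HPC (20 uM) then added, fluorescence read after 2.5 h.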
# Potency means the concentration at half of the fitted maximal effect; tags describe the fitted curve by direction and shape.
Structure (SMILES),Potency,"activity change, negative = inhibition"
CCOC(=O)CC(=O)CSc1nc2c(sc(=S)n2-c2ccccc2)c(=O)[nH]1,"inconclusive: 10 µM [inhibitor, partial curve]",–
Nc1c(S(=O)(=O)c2cccc(Cl)c2)c2nc3ccccc3nc2n1/N=C/c1ccc(O)c(O)c1,"inconclusive: 15.8 µM [inhibitor, full curve, poor fit]",–
Cc1cc(/C=C/c2ccc3cc(N(C)C)ccc3[n+]2C)c(C)n1-c1ccccc1,"inconclusive: 3.98 µM [inhibitor, single point]",–
CCCCN(C(=O)NC(=O)C1=C(N2CCOCC2)/C(=C/c2ccccc2)CC1)S(C)(=O)=O,"inconclusive: 15.8 µM [inhibitor, single point]",–
CCOC(=O)CCCCCCCCCCCCC1C=CCC1 (stereo unspecified),"inconclusive: 10 µM [inhibitor, single point]",–
Cc1cc(C(=O)OCC(=O)NCc2ccco2)c(C)n1-c1ccc(F)cc1,–,inactive: 16.3%
CC1CN(c2oc(COc3ccc(Cl)cc3Cl)nc2C#N)CC(C)O1 (stereo unspecified),–,inactive: -2.05%
O=C(O)COC(=O)Cc1ccccc1Nc1c(Cl)cccc1Cl,"inconclusive: 3.16 µM [inhibitor, single point]",–
Cc1sc2nc(SCC(=O)NCCO)n(C)c(=O)c2c1C,"inconclusive: 3.98 µM [inhibitor, single point]",–
Brc1ccc(CSc2nnc(Cc3c[nH]c4ccccc34)o2)cc1,"inconclusive: 12.6 µM [inhibitor, single point]",–
CCOc1ccc(C(=O)CCN2CCCCCC2)cc1,"inconclusive: 2 µM [inhibitor, full curve]",–
CCOc1ccc(CSC2=NCCN2)cc1Cl,"inconclusive: 7.94 µM [inhibitor, partial curve]",–
CC1(c2ccc(OC(F)F)cc2)NC(=O)N(CC(=O)Nc2ccc3c(c2)OCO3)C1=O (stereo unspecified),–,inactive: 15.1%
O=C(NC1CCCC1)C1CCC(=O)N1C1CCCC1 (stereo unspecified),"inconclusive: 25.1 µM [inhibitor, single point]",–
NC(=O)CSc1nnc(COc2ccccc2)n1CCc1ccccc1,"inconclusive: 12.6 µM [inhibitor, single point]",–
Cc1[nH]nc(-c2ccc(O)c(C)c2O)c1-c1cnn(-c2ccccc2)c1,"inconclusive: 25.1 µM [inhibitor, single point]",–
COc1ccc(C(=O)N2CCC3(CC2)CN(C(=O)Nc2ccccc2)C3)cc1,–,inactive: 35.2%
CN1CCN(c2ccnc(-c3cccnc3)n2)CC1,–,inactive: -0.904%
C/C(CCc1oc2ccccc2c1-c1ccc(C)o1)=N/O,"inconclusive: 10 µM [inhibitor, partial curve]",–
CC(C)(C)n1nnnc1C(c1cccs1)N(Cc1ccccc1)Cc1cccnc1 (stereo unspecified),"inconclusive: 2.51 µM [inhibitor, full curve]",–
COC(=O)N1CCC2(CC1)CCN(c1cccc(-c3ccccc3)c1)CC2,"inconclusive: 25.1 µM [inhibitor, single point]",–
COc1ccc(CNc2ncnc3ccc(-c4ccc(N(C)C)cc4)cc23)c(OC)c1,"inconclusive: 20 µM [inhibitor, single point]",–
CC(C)NC(=O)N1CCCC2(CCN(C(=O)c3csnn3)CC2)C1,"inconclusive: 12.6 µM [inhibitor, single point]",–
O=C(Cn1cnc2sc(-c3ccccc3)cc2c1=O)NCc1ccco1,"inconclusive: 25.1 µM [inhibitor, single point]",–

Structure (SMILES),Potency,"activity change, negative = inhibition"
Nn1c(COc2ccccc2)nnc1SC(F)F,–,inactive: -5.82%
COc1cc(OC)cc(-c2nnc(Nc3nc4c(F)cccc4s3)o2)c1,"inconclusive: 0.794 µM [inhibitor, full curve]",–
COc1ccc(-c2cc(C(F)(F)F)nc(N3CCCCC3)n2)cc1OC,"inconclusive: 10 µM [inhibitor, partial curve]",–
COc1ccc2c(c1)OCc1c-2oc2cc(OC)ccc12,"inconclusive: 10 µM [inhibitor, partial curve]",–
c1ccc(-c2noc(-c3cccc4ccccc34)n2)nc1,–,inactive: 13.6%
CC(C)Oc1ccccc1C1CC(=O)Nc2cc3c(cc21)OCCO3 (stereo unspecified),–,inactive: 0.426%
C=CCSC1=N/C(=C\C=C\c2ccco2)C(=O)S1,"inconclusive: 25.1 µM [inhibitor, single point]",–
Cc1ccc(CN(Cc2cc3cc(C)ccc3[nH]c2=O)C(=O)N2CCOCC2)cc1,–,inactive: 132%
CCn1c2ccccc2c2cc(/C=N/n3cnnc3)ccc21,"inconclusive: 25.1 µM [inhibitor, single point]",–
CN1CCc2c(cc(O)c(O)c2Cl)[C@H](c2cccc(Cl)c2)C1,–,inactive: 18.5%
CCN(CC)c1ccc2c(Cl)c(Br)c(=O)oc2c1,"inconclusive: 25.1 µM [inhibitor, single point]",–
Fc1ccc(-c2cc3nc(-c4ccccc4)cc(N4CCOCC4)n3n2)cc1,–,inactive: 9.97%
CCCCOC(=O)NS(=O)(=O)c1sc(CC(C)C)cc1-c1ccc(Cn2c(CC)nc3c(C)cc(C)nc32)cc1,"inconclusive: 3.16 µM [inhibitor, full curve]",–
O=C(NCc1ccco1)c1cc(-c2ccco2)on1,–,inactive: 4.82%
COc1cc2c(cc1OC)-c1cc(NCc3ccccn3)nc(=O)n1CC2,"inconclusive: 1.26 µM [inhibitor, full curve]",–
COc1ccc2[nH]cc(CCNc3nc(-c4ccoc4)nc4ccccc34)c2c1,"inconclusive: 25.1 µM [inhibitor, single point]",–
Cc1nc2nc(COc3ccccc3)[nH]n2c(=O)c1C,–,inactive: -5.15%
COc1cc(CN2CCN(c3cccc(Cl)c3)CC2)cc(OC)c1OC,"inconclusive: 12.6 µM [inhibitor, partial curve]",–
CCOc1ccc2[nH]c(=O)c(CN(CCO)C(=O)c3ccc(Br)cc3)cc2c1,"inconclusive: 20 µM [inhibitor, single point]",–
c1coc(CN(Cc2cccs2)Cc2nnnn2C2CCCCC2)c1,"inconclusive: 3.98 µM [inhibitor, partial curve]",–
COC(=O)CC1=C(C(=O)OC)C(c2cccs2)C(C#N)=C(N)O1 (stereo unspecified),"inconclusive: 7.94 µM [inhibitor, partial curve]",–
Cc1csc(NC(=O)CN2CCCCCC2)n1,"inconclusive: 10 µM [inhibitor, partial curve]",–
Cc1cc(C)n(-c2ccc(C(=O)Nc3ccccn3)cc2)n1,–,inactive: 3.99%
Cc1[nH]nc2c1C(c1ccc(OC(=O)c3ccco3)cc1)C(C#N)=C(N)O2 (stereo unspecified),"inconclusive: 3.16 µM [inhibitor, full curve]",–

Structure (SMILES),Potency,"activity change, negative = inhibition"
COc1ccccc1NC(=O)CN1CCN(C2c3ccccc3-c3ccccc32)CC1,"inconclusive: 25.1 µM [inhibitor, single point]",–
Cc1ccc2occ(C(=O)c3ccco3)c(=O)c2c1,"inconclusive: 12.6 µM [inhibitor, single point]",–
CN(C(=O)NC(=O)C1=C(N2CCOCC2)/C(=C/c2ccccc2)CC1)S(C)(=O)=O,"inconclusive: 25.1 µM [inhibitor, single point]",–
CC(C)[C@@H]1NC(=O)[C@H](CCCCN)NC(=O)[C@H](Cc2c[nH]c3ccccc23)NC(=O)[C@H](Cc2ccc(O)cc2)NC(=O)[C@H](C)N(C)C(=O)[C@H](Cc2ccccc2)NC1=O,–,inactive: 9.71%
COc1ccc(NC(=O)CSc2nc(O)cc(=O)n2-c2ccccc2OC)cc1,"inconclusive: 5.01 µM [inhibitor, single point]",–
COc1ccccc1CNc1nc(-c2cccc(C#N)c2)nc2ccccc12,"inconclusive: 20 µM [inhibitor, single point]",–
COCCn1c(=O)c(-c2ccc(F)cc2)nc2cnc(Oc3cccc(Cl)c3)nc21,–,inactive: 9.63%
CC(C)c1c(O)ccc2c1CCC1C(C)(C)CCC[C@@]21C (stereo partly specified),"inconclusive: 20 µM [inhibitor, single point]",–
O=C(c1ccco1)c1cn(CC(=O)N2CCCc3ccccc32)c2ccccc12,"inconclusive: 25.1 µM [inhibitor, single point]",–
C=CCOc1ccc2c(c1)c(S(=O)(=O)c1ccc(C)cc1)cn2COC,"inconclusive: 20 µM [inhibitor, single point]",–
O=C1c2ccccc2C(=O)N1CCc1nc(-c2ccccn2)no1,–,inactive: 3.04%
CCCCSc1nn[nH]n1,"inconclusive: 5.01 µM [inhibitor, single point]",–
O=Nc1c(-c2c(O)[nH]c3cc(Br)ccc23)[nH]c2ccccc12,active: 12.6 µM,–
COC(=O)c1ccc2ncccc2c1,–,inactive: 8.08%
O=C(c1cccs1)N1CCCc2ccccc21,–,inactive: -2.31%
CCN(CC)S(=O)(=O)c1cccc2cc(C(=O)O)c(O)cc12,"inconclusive: 6.31 µM [inhibitor, partial curve]",–
COc1cccc(NC(=O)Cn2c(=O)n(CCCC(=O)NCc3ccco3)c(=O)c3ccccc32)c1,–,inactive: 24.7%
COc1cccc(-c2nnc(SCC(=O)N3CCOCC3)o2)c1,"inconclusive: 5.01 µM [inhibitor, single point]",–
O=Nc1c(-c2c(O)[nH]c3ccccc23)[nH]c2ccccc12,"inconclusive: 25.1 µM [inhibitor, partial curve]",–
Cc1ccc(S(=O)(=O)Nc2ccc3c(c2)ncn3C(C)(C)C)cc1,–,inactive: 20.7%
CCOC(=O)c1ccc(Oc2cc(C)nc(SC)n2)cc1,–,inactive: -0.578% [at 7.66 µM]
COc1ccc(-c2cc(C(F)(F)F)nc(SCCC(=O)N3CCOCC3)n2)cc1,–,inactive: 17.9%
C/C1=C2N=C(/C=C3N=C(/C(C)=C4\[N-]C(C)(C5N=C1C(C)(CCC(=O)NCC(C)OP(=O)([O-])O[C@H]1C(O)C(n6cnc7cc(C)c(C)cc76)O[C@@H]1CO)C5CC(N)=O)C(C)(CC(N)=O)C4CCC(N)=O)C(C)(CC(N)=O)C\3CCC(N)=O)C(C)(C)C/2CCC(N)=O.[CH2-]C1OC(n2cnc3c(N)ncnc32)C(O)C1O.[Co] (stereo partly specified),active: 3.16 µM,–

# From PubChem BioAssay AID927 (National Center for Advancing Translational Sciences (NCATS), 2007)
